Among all 220,000 compounds or so, about 2,300 (1%) were called active. The shares of active, inactive and inconclusive entries below differ from those in the screen. Calls follow the shape of the dose curve; as a rule, active = well fitted inhibition curve with a large enough effect; inconclusive = small, poorly fitted or top-dose-only effect, or effect the other way; inactive = no such curve, though single readings can be large or run the other way. Potencies of inconclusive entries are left out as doubtful fits.
Each compound was assayed against Neuropeptide S receptor (Homo sapiens) (UniProt Q6W5P4) (assay: qHTS Assay for Antagonists of the Neuropeptide S Receptor: cAMP Signal Transduction). Conditions: CHO-NPSR cells, cAMP TR-FRET, antagonist mode; activity change, negative = inhibition: at 38.3 µM (top of the series) unless noted.
UniProt Q6W5P4, sequence (Q6W5P4 whole entry, looked up): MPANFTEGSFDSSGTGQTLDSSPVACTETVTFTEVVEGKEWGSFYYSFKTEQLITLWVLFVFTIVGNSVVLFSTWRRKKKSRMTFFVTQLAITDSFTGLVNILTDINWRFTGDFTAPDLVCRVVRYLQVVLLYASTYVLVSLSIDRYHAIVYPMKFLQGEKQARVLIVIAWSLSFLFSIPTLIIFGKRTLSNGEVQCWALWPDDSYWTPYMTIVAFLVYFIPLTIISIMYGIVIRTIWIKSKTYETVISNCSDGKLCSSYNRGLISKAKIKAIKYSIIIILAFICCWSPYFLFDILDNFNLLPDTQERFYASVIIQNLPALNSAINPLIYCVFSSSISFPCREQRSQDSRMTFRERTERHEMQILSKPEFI
In the case of `O=C1Nc2ccccc2/C1=C\c1cccn1-c1ccc(OC(F)(F)F)cc1`, the Potency is reported as inconclusive [inhibitor, single point]. With `COc1cc2c3c(c1)C1(C(=O)N3C(C)(C)C=C2C)C(C#N)=C(N)Oc2cc(O)ccc21` (stereo not drawn) the Potency was inconclusive [inhibitor, single point]. With `COc1ccc(O)c(/C=N/NC(=S)Nc2cccc(S(=O)(=O)N(C)C)c2)c1` the Potency was inconclusive [inhibitor, single point]. `C=CCn1c(N2CCCC2)nc2c1c(=O)[nH]c(=O)n2C` was tested, and the “activity change, negative = inhibition” value was inactive: -8.47% [at 46.1 µM]. For `CCOC(=O)CC1C(=O)NCCN1C(=O)COc1ccc(Br)cc1C` (stereo not drawn), the “activity change, negative = inhibition” value was inactive: 2.52% [at 46.1 µM]. For `O=C1c2cccnc2C(Nc2ccc(F)c(Cl)c2)N1Cc1cccs1` (stereo not drawn), the “activity change, negative = inhibition” value was inactive: -40.7%. For `O=C(NC(=S)N1CCN(c2ccc([N+](=O)[O-])cc2)CC1)c1ccccc1Cl`, the “activity change, negative = inhibition” value was inactive: -39.2%. For `CCOC(=O)COc1cc(-n2c(=S)[nH]c3cc(OC)c(OC)cc3c2=O)c(Cl)cc1Cl`, the Potency was inconclusive [inhibitor, single point]. `CCOC(=O)c1c(NC(=O)CSc2nnc(C)s2)sc2c1CCCCC2` was tested, and the Potency was inconclusive [inhibitor, partial curve]. With `CNc1cccc2c1C(=O)c1ccccc1C2=O` the “activity change, negative = inhibition” value was inactive: -15.5% [at 46.1 µM]. For `O=C(NCc1ccco1)c1ccc2nc3sc4c(c3c(=O)n2c1)CCCC4`, the Potency was active: 10 µM. For `C/C(=N\NC(=O)c1ccc(N/N=C(\C)c2ccc(O)cc2)cc1)c1ccc(O)cc1`, the Potency was inconclusive [activator, single point]. `CC(CC(C)C(=O)Nc1ccccc1C(C)(C)C)C(=O)O` (stereo not drawn) was tested, and the “activity change, negative = inhibition” value was inactive: -4.36% [at 46.1 µM]. For `Cn1c(=O)cc(SCC(=O)NCCC2=CCCCC2)c2ccccc21`, the “activity change, negative = inhibition” value was inactive: -3.12%. `O=C1COc2ccc(-c3csc(NCC4CCCO4)n3)cc2N1` (stereo not drawn) was tested, and the “activity change, negative = inhibition” value was inactive: -10.4% [at 46.1 µM]. `Fc1ccc(CSc2nncn2NC/C=C/c2ccccc2)cc1` was tested, and the “activity change, negative = inhibition” value was inactive: 0.892% [at 46.1 µM]. In the case of `COc1ccc(CC(=O)Nc2ccc(-c3cn4ccccc4n3)cc2)cc1OC`, the Potency is reported as inconclusive [inhibitor, single point]. With `O=C(Nc1ccccc1[N+](=O)[O-])C1C(c2ccccc2)=C1c1ccccc1` the Potency was inconclusive [inhibitor, partial curve]. For `Cc1cccc(N2CCN(C(=O)CCCn3c(=S)[nH]c4cc5c(cc4c3=O)OCO5)CC2)c1C`, the Potency was inconclusive [inhibitor, partial curve]. With `COc1ccc2nc(-n3c(O)c(C4=c5ccccc5=NC4=O)[nH]c3=S)sc2c1` the Potency was inconclusive [inhibitor, single point]. In the case of `Cc1cccc(C)c1NC(=S)N/N=C/c1ccccc1C(=O)O`, the “activity change, negative = inhibition” value is reported as inactive: -5.09%. `O=C(CSc1nnc(-c2cccs2)o1)c1cccs1` was tested, and the Potency was inconclusive [inhibitor, partial curve, poor fit]. In the case of `Clc1ccc2[nH]c3c(NCCCN4CCOCC4)ncnc3c2c1`, the “activity change, negative = inhibition” value is reported as inactive: -4.17% [at 46.1 µM]. In the case of `O=C(Nc1ccc2c(c1)OCCO2)c1cc2sccc2n1Cc1ccccc1`, the Potency is reported as inconclusive [inhibitor, single point]. For `Cc1cccc(CN2C(=O)CCSc3ccc(Cl)cc32)c1`, the “activity change, negative = inhibition” value was inactive: -18.5% [at 46.1 µM]. With `COC(=O)c1cc2sc(Cl)cc2n1CC(=O)N1CCCc2ccccc21` the Potency was inconclusive [inhibitor, partial curve]. In the case of `CCN(CC)c1ccc(S(=O)(=O)N(CC)CC)cc1NC(=O)C1CCCC1`, the Potency is reported as inconclusive [inhibitor, single point]. With `CC(C)c1ccc(NC(=S)Nc2ccc3cn[nH]c3c2)cc1` the “activity change, negative = inhibition” value was inactive: -8.41%. `CCOc1ccc(NS(=O)(=O)c2cnc(Cl)c(Cl)c2)cc1` was tested, and the “activity change, negative = inhibition” value was inactive: 15.6%. For `CCOc1cc(/C=C2\C(=O)N(c3nc(-c4ccc(Br)cc4)cs3)N=C2c2ccccc2)ccc1O`, the Potency was active: 10 µM. In the case of `COc1ccc(C2c3c(oc4ccccc4c3=O)C(=O)N2c2ccccn2)cc1` (stereo not drawn), the Potency is reported as inconclusive [inhibitor, partial curve]. In the case of `O=C(CCl)Nc1cccc(Oc2ccccc2)c1`, the “activity change, negative = inhibition” value is reported as inactive: -32%. For `Cc1cccc(C)c1OCC(O)CN(Cc1ccccc1O)C1CCCCC1` (stereo not drawn), the Potency was inconclusive [inhibitor, single point]. `Cc1ccc2c(c1)/C(=C/c1ccco1)C(=O)N2` was tested, and the “activity change, negative = inhibition” value was inactive: -21.5%. In the case of `Cc1nc2cc(C(=O)O)ccc2n1C1CCCCC1`, the “activity change, negative = inhibition” value is reported as inactive: -5.2% [at 46.1 µM]. For `O=C(CCN1Cc2ccccc2C1)c1ccc2c(c1)OCCO2`, the Potency was inconclusive [inhibitor, single point]. In the case of `COc1ccc(-c2nc(-c3cccs3)c(-c3cccs3)[nH]2)cc1O`, the Potency is reported as active: 10 µM. In the case of `N#Cc1cccc(NC(=O)COC(=O)c2ccccc2Sc2ccccc2C#N)c1`, the Potency is reported as inconclusive [inhibitor, single point]. In the case of `Cc1c(NS(=O)(=O)c2ccc3c(c2)OCCO3)cccc1-c1nc2cccnc2s1`, the Potency is reported as inconclusive [inhibitor, partial curve, poor fit]. `CN(Cc1ccc(-n2cccn2)cc1)C(=O)c1cnn2c1NC(c1ccco1)CC2C(F)(F)F` (stereo not drawn) was tested, and the Potency was inconclusive [inhibitor, partial curve, poor fit]. For `O=S(=O)(Nc1nc2ccccc2nc1Cl)c1ccccc1`, the Potency was inconclusive [activator, partial curve]. `Cc1ccc(N2C(=O)CC3(CC4C=CC3C4)C2=O)cc1` (stereo not drawn) was tested, and the “activity change, negative = inhibition” value was inactive: -9.99% [at 46.1 µM]. For `COc1cc(C(=O)Nc2cccc(-c3nc4ccccc4o3)c2C)cc(OC)c1OC`, the Potency was inconclusive [inhibitor, single point]. For `COc1ccccc1/C=C/C1(C(=O)NC2CCCC2)CC(=O)N1c1ccc(F)cc1` (stereo not drawn), the Potency was inconclusive [inhibitor, single point]. For `CC(C)CC1CC(=O)OC1(C)C(=O)CSc1nc2ccccc2s1` (stereo not drawn), the “activity change, negative = inhibition” value was inactive: -25.6% [at 46.1 µM]. For `COc1ccc(NC(=O)N2CC(C)OC(C)C2)cc1OC` (stereo not drawn), the Potency was inconclusive [inhibitor, single point]. In the case of `CCCOP(=O)(c1ccc(N(C)C)cc1)C(Nc1ccccc1)c1ccc(C)cc1` (stereo not drawn), the Potency is reported as inconclusive [activator, single point]. For `CCn1c(=O)cc(OCC(=O)N2CCc3ccccc32)c2ccccc21`, the Potency was inconclusive [inhibitor, single point]. With `COc1cc(/C=C(\C#N)C(=O)NC2CCCCC2C)ccc1OS(=O)(=O)c1ccc(C)cc1` (stereo not drawn) the Potency was inconclusive [inhibitor, partial curve]. With `COC(=O)c1ccc(S(=O)(=O)c2ccc(C(=O)OC)s2)s1` the Potency was inconclusive [inhibitor, single point]. In the case of `Cc1cc(C)cc(NC(=O)C2CCCN2C(=O)Oc2ccccc2)c1` (stereo not drawn), the Potency is reported as inconclusive [activator, partial curve, poor fit]. For `CCOC(=O)c1csc(Nc2nc3ccc(F)cc3s2)n1`, the Potency was inconclusive [inhibitor, partial curve]. In the case of `O=C(NC1CCCCC1)C(c1ccc2ncccc2c1)N(Cc1ccccc1)C(=O)c1cccs1` (stereo not drawn), the Potency is reported as inconclusive [inhibitor, single point]. `O=C(NC(=S)Nc1ccc(N2CCCCC2)cc1)c1cccs1` was tested, and the “activity change, negative = inhibition” value was inactive: -13.5% [at 46.1 µM]. `CCn1c(/C=C2\C(=O)N(C(C)C)c3ccccc32)nc2ccccc2c1=O` was tested, and the “activity change, negative = inhibition” value was inactive: -44.7%. With `CCCCCC(=O)NNC1CC(=O)N(c2cccc(OCC)c2)C1=O` (stereo not drawn) the Potency was inconclusive [activator, single point]. `CCOC(=O)CNC(=O)c1sc(NC(=O)c2ccccc2F)nc1C` was tested, and the “activity change, negative = inhibition” value was inactive: -12.7% [at 46.1 µM]. In the case of `O=C(CN(c1ccccc1)S(=O)(=O)c1ccc(Cl)cc1)Nc1ccccc1C(=O)N1CCCC1`, the Potency is reported as inconclusive [inhibitor, partial curve]. In the case of `CC(=O)OCCCNc1cc(Sc2nc3ccccc3s2)c2nonc2c1[N+](=O)[O-]`, the Potency is reported as inconclusive [inhibitor, single point]. `Cc1c(N/C=C(\Cl)C(=O)C(F)(F)F)c(=O)n(-c2ccccc2)n1C` was tested, and the “activity change, negative = inhibition” value was inactive: 7.64%. For `N#CC1=C(N)NC(SCC(=O)Nc2ccc(Br)cc2)=C(C#N)C12CCCCC2`, the Potency was inconclusive [inhibitor, single point]. For `CSCCC(NC(=O)OC(C)(C)C)C(=O)Oc1ccc2c(=O)c(-c3ccc4c(c3)OCCO4)coc2c1` (stereo not drawn), the “activity change, negative = inhibition” value was inactive: -12.7% [at 46.1 µM]. For `COc1cc(NC(=O)Cc2ccccc2)ccc1NC(=O)c1ccco1`, the “activity change, negative = inhibition” value was inactive: -2.72% [at 46.1 µM]. With `C/C(=N\NC(=O)Cn1c(C)nc2ccccc21)c1cccs1` the “activity change, negative = inhibition” value was inactive: 34.3%. `COCCCN1C(=O)CC(C(=O)OC)=C1C` was tested, and the “activity change, negative = inhibition” value was inactive: 27.7%. With `O=C(CNCCC1=CCCCC1)Nc1ccccc1N1CCCCC1` the Potency was inconclusive [inhibitor, partial curve]. In the case of `CCCC(c1nnnn1C(C)(C)CC)N(CCCO)Cc1cc2cc(C)cc(C)c2[nH]c1=O` (stereo not drawn), the Potency is reported as inconclusive [inhibitor, partial curve]. With `CCn1nc(C(=O)OC(C(=O)c2c[nH]c3ccccc23)c2ccccc2)c2ccccc2c1=O` (stereo not drawn) the Potency was inconclusive [inhibitor, partial curve]. `Oc1ccc(N=Cc2ccc(-c3cccs3)s2)cc1` was tested, and the Potency was inconclusive [inhibitor, single point]. `CN(CC(=O)Nc1ccc([N+](=O)[O-])cc1Br)Cc1c(F)cccc1Cl` was tested, and the Potency was inconclusive [activator, partial curve]. With `O=C(Nc1ccccc1N1CCCCC1)c1ccccc1F` the Potency was inconclusive [inhibitor, single point]. With `O=[N+]([O-])c1cc(S(=O)(=O)N2CCCCCC2)ccc1F` the Potency was inconclusive [inhibitor, partial curve, poor fit]. With `CCCN(CC(=O)Nc1ccc(C)cc1Br)CC(=O)Nc1ccc(F)c(F)c1F` the Potency was inconclusive [inhibitor, single point].

Source: PubChem BioAssay AID1461 (National Center for Advancing Translational Sciences (NCATS), 2008)
% is scaled to controls: 0 for no effect and ±100 for the full control effect; potency is read from the fitted curve at half-maximal effect; tags tell the direction and shape of the fitted curve.
Also: nearly all actives have a fitted effect of over 50% in size.
